# Source: PubChem BioAssay (Tox21)
# The inconclusive results got no clear call from the source; some entries with a clear call stand among them for comparison. Entries that show only a call come without a potency. For some assays here: A potency beside an inconclusive call is a rough fit, not a confirmed value. The source holds several records for some structures; these can differ, active in one and inactive in another. The source made the active and inactive calls. Unless noted, calls follow the shape of the dose curve; as a rule, active = well fitted curve in the direction sought with a large enough effect in the repeat runs; inconclusive = weak or mixed curves; inactive = no such curve, though single readings can be large; an effect the other way counts as inactive or inconclusive.
# Columns and labels:
# [1] = molecular target: Peroxisome proliferator-activated receptor delta (Homo sapiens) (UniProt Q03181); assay: qHTS assay to identify small molecule antagonists of the peroxisome proliferator-activated receptor delta (PPARd) signaling pathway (AID 743215; active = well fitted inhibition curve with a large enough effect in the signal ratio in the repeat runs, not every such curve was filed as active; inconclusive = weak or mixed curves, or effect the other way; inactive = no such curve, though single readings can be large or run the other way; the % refers to the signal ratio;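 also: cells stimulated with agonist L165041 at 300 nM final during compound exposure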); conditions: HEK293H PPARd-UAS-bla, beta-lactamase FRET ratio, antagonist, 17 h; ratio activity, negative = inhibition: at 62 µM (top of the series) unless noted
# Sequence of UniProt Q03181 (Q03181 whole entry, looked up): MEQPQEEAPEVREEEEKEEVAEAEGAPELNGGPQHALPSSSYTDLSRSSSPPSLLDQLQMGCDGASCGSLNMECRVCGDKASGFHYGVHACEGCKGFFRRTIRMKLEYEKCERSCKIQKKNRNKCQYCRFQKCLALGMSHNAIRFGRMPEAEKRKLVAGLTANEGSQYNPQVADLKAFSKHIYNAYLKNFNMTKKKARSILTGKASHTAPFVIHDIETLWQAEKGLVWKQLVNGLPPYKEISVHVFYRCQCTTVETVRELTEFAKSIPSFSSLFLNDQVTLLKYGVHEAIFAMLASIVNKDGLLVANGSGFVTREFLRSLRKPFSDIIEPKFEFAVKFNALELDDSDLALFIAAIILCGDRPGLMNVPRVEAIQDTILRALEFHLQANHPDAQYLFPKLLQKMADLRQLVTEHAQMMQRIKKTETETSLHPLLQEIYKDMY
# Outline: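 Plated HEK293H PPARd-bla cells rested 5 h at 37 C and 5% CO2. Compound, then agonist L165041 at 300 nM final, was added; 17 h at 37 C followed. Substrate loading, 2 h room temperature, fluorescence measured.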
# [2] = molecular target: Progesterone receptor (Homo sapiens) (UniProt P06401); assay: qHTS assay to identify small molecule antagonists of the progesterone receptor (PR) signaling pathway (AID 1346795; active = well fitted inhibition curve with a large enough effect in the signal ratio in the repeat runs, not every such curve was filed as active; inconclusive = weak or mixed curves; the % refers to the signal ratio); conditions: PR-UAS-bla HEK293T, beta-lactamase FRET ratio, 16 h; activity change, negative = inhibition: at 92.4 µM (top of the series) unless noted
# Sequence of UniProt P06401 (P06401 whole entry, looked up): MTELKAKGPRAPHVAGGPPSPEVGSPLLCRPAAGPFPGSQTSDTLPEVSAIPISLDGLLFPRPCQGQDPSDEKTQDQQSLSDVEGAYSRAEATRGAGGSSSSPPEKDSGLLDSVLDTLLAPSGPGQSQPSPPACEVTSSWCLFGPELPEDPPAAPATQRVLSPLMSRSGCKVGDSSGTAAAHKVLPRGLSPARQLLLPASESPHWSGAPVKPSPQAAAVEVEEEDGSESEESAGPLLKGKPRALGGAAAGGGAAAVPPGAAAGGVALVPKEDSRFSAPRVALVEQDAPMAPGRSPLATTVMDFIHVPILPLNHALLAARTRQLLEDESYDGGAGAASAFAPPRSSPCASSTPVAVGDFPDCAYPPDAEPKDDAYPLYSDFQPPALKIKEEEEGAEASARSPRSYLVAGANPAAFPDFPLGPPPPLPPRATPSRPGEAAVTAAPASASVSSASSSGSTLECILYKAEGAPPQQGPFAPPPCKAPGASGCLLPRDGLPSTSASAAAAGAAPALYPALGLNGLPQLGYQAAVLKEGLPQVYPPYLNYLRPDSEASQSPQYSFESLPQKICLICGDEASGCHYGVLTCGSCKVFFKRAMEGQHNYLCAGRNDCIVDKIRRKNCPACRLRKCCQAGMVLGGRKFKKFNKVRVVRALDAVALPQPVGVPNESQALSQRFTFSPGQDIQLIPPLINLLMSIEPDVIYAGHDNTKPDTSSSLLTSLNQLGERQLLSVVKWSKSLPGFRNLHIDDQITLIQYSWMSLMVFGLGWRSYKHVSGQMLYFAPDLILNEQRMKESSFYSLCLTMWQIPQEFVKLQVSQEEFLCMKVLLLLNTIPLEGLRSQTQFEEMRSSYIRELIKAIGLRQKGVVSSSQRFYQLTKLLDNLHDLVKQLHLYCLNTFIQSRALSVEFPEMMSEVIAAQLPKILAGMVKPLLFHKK
# Outline: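 Inhibition of R5020-induced (1 nM final) beta-lactamase reporter signal in PR-UAS-bla HEK293T cells was scored by FRET fluorescence after overnight (16 hr) compound treatment.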
# [3] = Human pregnane X receptor (PXR) small molecule agonists, qHTS cell viability counter screen (AID 1346977); also: nearly all actives have a fitted effect of over 50% in size; also: potency is read from the fitted curve at half-maximal effect
# Outline: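 Readout is CellTiter-Fluor fluorescence from PXR-Luc HepG2 cells. Plated cells rested 5hr, then were treated with compounds for 24hr at 37C and 5% CO2, with reagent present during the last hour.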
# [4] = qHTS assay to identify small molecule agonists of H2AX - cell viability counter screen (AID 1224847; calls by dose curve; also: nearly all actives have a fitted effect of over 30% in size; also: potency is read from the fitted curve at half-maximal effect)
# Outline: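 After overnight plating of 1000 CHO-K1 cells per well, a 15-concentration compound series was applied for 3 hr at 37C. Luminescence from CellTiter-Glo, read following 30 min at room temperature, reflected cell viability.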
# [5] = A CellTox Green Cytotoxicity Assay to monitor cytotoxicity in HEK293 cells - 32 hour (AID 1224881); also: nearly all actives have a fitted effect of over 40% in size
# Outline: (§1)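 Dead-cell fluorescence measured kinetically: asymmetric cyanine dye, HEK293, 600 cells/well, 5 h settle, 23 nL cpd/DMSO, 37 C, reads 0–40 h every 8 h.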
# [6] = qHTS assay to identify small molecule antagonists of the estrogen receptor beta (ER-beta) signaling pathway - cell viability counter screen (AID 1259382);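 also: HEK293T cells carrying ER-beta-UAS-bla reporter stimulated with estradiol; nearly all actives have a fitted effect of over 55% in size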
# Outline: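 Viability is scored by CellTiter-Glo luminescence (30 min, room temperature) in ER-beta-UAS-bla HEK293T wells already read for reporter fluorescence. Compound exposure lasts 16 hr at 37C alongside 1nM 17-beta-estradiol in charcoal-stripped serum medium.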
# [7] = qHTS RealTime-Glo MT Cell Viability Assay in HEK293 cells - 24 hour (AID 1224886); also: top concentration of the series differs between compounds; nearly all actives have a fitted effect of over 50% in size
# Outline: (§2)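 Luminescence generated by NanoLuc from substrate produced by living HEK293 cells served as the viability signal. Each value reflects the reading at its stated time point during continuous 40 h compound exposure at 37 C.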
# [8] = Caspase-3/7 induction in CHO-K1 cells by small molecules, qHTS cell viability counter screen (AID 1346979); also: nearly all actives have a fitted effect of over 35% in size; also: potency is read from the fitted curve at half-maximal effect
# Outline: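 To flag cytotoxic compounds, treated CHO-K1 wild-type cells were given CellTiter-Fluor at 16hr and read fluorescently after 1hr at 37C; the caspase-3/7 luminescence was measured in these same wells.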
# [9] = molecular target: Voltage-gated inwardly rectifying potassium channel KCNH2 (Homo sapiens) (UniProt Q12809); assay: Human Ether-a-go-go-Related Gene (hERG) channel small molecule antagonists: fluorescence cell-based qHTS assay (AID 1671200); also: nearly all actives have a fitted effect of over 50% in size; also: potency is read from the fitted curve at half-maximal effect;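 as to activity change, negative = inhibition: hERG-expressing U2OS cells given a thallium stimulus after FluxOR II dye loading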
# Sequence of UniProt Q12809 (Q12809 whole entry, looked up): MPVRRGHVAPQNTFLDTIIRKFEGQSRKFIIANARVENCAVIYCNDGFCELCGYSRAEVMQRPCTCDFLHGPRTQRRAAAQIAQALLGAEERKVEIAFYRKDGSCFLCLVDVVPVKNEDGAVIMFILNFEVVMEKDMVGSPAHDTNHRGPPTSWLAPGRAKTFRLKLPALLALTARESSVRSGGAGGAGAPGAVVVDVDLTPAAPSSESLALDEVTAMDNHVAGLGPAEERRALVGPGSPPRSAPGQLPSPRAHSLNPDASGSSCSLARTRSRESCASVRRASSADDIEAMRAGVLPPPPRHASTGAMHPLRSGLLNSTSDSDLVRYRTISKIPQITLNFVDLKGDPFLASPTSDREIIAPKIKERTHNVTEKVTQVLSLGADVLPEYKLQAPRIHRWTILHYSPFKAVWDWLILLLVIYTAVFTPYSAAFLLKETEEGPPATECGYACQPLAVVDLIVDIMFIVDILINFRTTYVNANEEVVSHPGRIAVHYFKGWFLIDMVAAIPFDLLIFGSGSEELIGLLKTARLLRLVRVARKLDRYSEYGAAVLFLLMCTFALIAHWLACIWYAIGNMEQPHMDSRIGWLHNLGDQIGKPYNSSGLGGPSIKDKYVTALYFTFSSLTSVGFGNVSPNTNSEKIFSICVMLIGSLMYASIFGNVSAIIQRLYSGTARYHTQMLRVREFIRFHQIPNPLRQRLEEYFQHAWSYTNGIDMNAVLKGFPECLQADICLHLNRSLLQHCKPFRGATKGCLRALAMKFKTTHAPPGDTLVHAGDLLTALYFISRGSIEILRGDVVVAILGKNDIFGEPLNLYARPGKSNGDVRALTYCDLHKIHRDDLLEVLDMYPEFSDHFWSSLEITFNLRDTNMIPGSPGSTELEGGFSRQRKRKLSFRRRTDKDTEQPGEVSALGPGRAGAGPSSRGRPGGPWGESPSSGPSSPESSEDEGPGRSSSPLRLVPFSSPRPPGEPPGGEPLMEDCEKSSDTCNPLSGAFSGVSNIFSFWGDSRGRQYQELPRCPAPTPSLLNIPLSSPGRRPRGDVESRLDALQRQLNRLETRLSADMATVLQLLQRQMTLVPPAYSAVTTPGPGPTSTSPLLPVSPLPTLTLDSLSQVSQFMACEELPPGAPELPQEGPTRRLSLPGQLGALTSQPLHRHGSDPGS
# Outline: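 Measured: Tl+ flux via fluorescence (480/540 nm) in hERG-expressing U2OS cells after 1 h dye loading at room temperature.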
# [10] = A CellTox Green Cytotoxicity Assay to monitor cytotoxicity in HEK293 cells - 8 hour (AID 1224884); also: potency is read from the fitted curve at half-maximal effect; nearly all actives have a fitted effect of over 35% in size
# Outline: as §1
# [11] = qHTS RealTime-Glo MT Cell Viability Assay in HEK293 cells - 32 hour (AID 1224868); also: top concentration of the series differs between compounds; nearly all actives have a fitted effect of over 50% in size
# Outline: as §2
# [12] = molecular target: Peroxisome proliferator-activated receptor delta (Homo sapiens) (UniProt Q03181); assay: qHTS assay to identify small molecule agonists of the peroxisome proliferator-activated receptor delta (PPARd) signaling pathway (AID 743212; calls by dose curve); conditions: HEK293H PPARd-UAS-bla, beta-lactamase FRET ratio, 17 h; activation: at 62.6 µM (top of the series) unless noted
# Outline: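 Cells expressing a UAS-driven beta-lactamase reporter (PPARd-bla HEK293H) were given test compounds after a 5 h settle and kept at 37 C. Reporter activity was then measured as FRET fluorescence using LiveBLAzer B/G substrate.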
# [13] = molecular target: Thyrotropin receptor (Homo sapiens) (UniProt P16473); assay: qHTS assay to identify small molecule antagonists of the thyroid stimulating hormone receptor (TSHR) signaling pathway (AID 1259385; calls by dose curve; also: nearly all actives have a fitted effect of over 20% in size; also: potency is read from the fitted curve at half-maximal effect); conditions: TSHR-HEK293 cAMP HTRF, TSH-stimulated antagonist mode; activity change, negative = inhibition: at 92.4 µM (top of the series)
# Sequence of UniProt P16473 (P16473 whole entry, looked up): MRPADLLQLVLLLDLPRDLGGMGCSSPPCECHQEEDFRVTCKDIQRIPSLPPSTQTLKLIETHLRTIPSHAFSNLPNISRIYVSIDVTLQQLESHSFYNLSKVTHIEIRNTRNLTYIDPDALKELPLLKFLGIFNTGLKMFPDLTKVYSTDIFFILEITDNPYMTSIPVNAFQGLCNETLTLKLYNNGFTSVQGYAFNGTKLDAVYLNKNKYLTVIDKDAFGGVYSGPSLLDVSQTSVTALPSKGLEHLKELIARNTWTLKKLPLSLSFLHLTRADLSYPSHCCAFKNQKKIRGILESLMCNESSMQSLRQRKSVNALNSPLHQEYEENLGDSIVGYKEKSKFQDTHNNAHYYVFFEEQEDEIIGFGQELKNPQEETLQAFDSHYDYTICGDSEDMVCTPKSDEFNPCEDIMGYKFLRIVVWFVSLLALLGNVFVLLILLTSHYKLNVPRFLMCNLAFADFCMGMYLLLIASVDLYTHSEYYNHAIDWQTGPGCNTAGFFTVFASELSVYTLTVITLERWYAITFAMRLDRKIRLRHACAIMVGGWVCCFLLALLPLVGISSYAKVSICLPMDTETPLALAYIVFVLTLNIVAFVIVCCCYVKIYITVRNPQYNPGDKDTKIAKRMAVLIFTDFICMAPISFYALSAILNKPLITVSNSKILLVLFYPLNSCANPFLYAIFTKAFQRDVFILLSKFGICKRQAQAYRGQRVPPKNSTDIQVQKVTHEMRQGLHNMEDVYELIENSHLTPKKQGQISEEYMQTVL
# Outline: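 TSHR-HEK293 cells were plated and held 18 h at 37C/5% CO2, then given compound plus Ro20-1724 and stimulated with TSH at 1.5 ng/mL final. After 30 min at room temperature, cAMP was detected with cAMP-d2/anti-cAMP-cryptate (1 h) by fluorescence.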
# [14] = molecular target: Nuclear receptor subfamily 1 group I member 2 (Homo sapiens) (UniProt O75469); assay: CYP3A4 induction through human pregnane X receptor (PXR) by small molecules, qHTS assay (AID 1346984); conditions: DPX-2 HepG2 PXR, CYP3A4-luciferin luminescence, 24 h; activation: at 46.1 µM (top of the series); also: nearly all actives have a fitted effect of over 40% in size; also: potency is read from the fitted curve at half-maximal effect
# Outline: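 Induction measured in HepG2-based DPX-2 cells co-expressing human PXR and a CYP3A4 promoter-driven luciferase. After a 24-hour compound exposure, cells received CYP3A4 luciferin substrate at 3uM final for 3 hours, and light output was then recorded.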
# [15] = molecular target: Nuclear receptor subfamily 1 group I member 2 (Homo sapiens) (UniProt O75469); assay: Human pregnane X receptor (PXR) small molecule agonists, qHTS assay (AID 1346982); also: nearly all actives have a fitted effect of over 35% in size; also: potency is read from the fitted curve at half-maximal effect
# Outline: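 Reporter HepG2 cells expressing PXR-Luc are cultured in charcoal-stripped FBS (5%), treated with compounds for 24 hr at 37 C, and assayed by ONE-Glo luminescence after 30 min at room temperature.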
# [16] = qHTS assay for small molecules that induce genotoxicity in human embryonic kidney cells expressing luciferase-tagged ATAD5 - cell viability (AID 651634; calls by dose curve; also: potency is read from the fitted curve at half-maximal effect; nearly all actives have a fitted effect of over 25% in size)
# Outline: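 After 15.5 hr incubation with compound at 37C, 5% CO2, HEK293T ATAD5-luciferase cells received CellTiter-Fluor reagent; fluorescence intensity was quantified following 30 min at 37C.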
# [17] = molecular target: Androgen receptor (Homo sapiens) (UniProt P10275); assay: qHTS assay to identify small molecule antagonists of the androgen receptor (AR) signaling pathway (AID 743035; active = well fitted inhibition curve with a large enough effect in the signal ratio in the repeat runs, not every such curve was filed as active; inconclusive = weak or mixed curves, or effect the other way; inactive = no such curve, though single readings can be large or run the other way; the % refers to the signal ratio; also: potency is read from the fitted curve at half-maximal effect); conditions: HEK293 AR-UAS-bla, R1881-stimulated, beta-lactamase FRET, 16 h; activity change, negative = inhibition: at 58.5 µM (top of the series) unless noted
# Sequence of UniProt P10275 (P10275 whole entry, looked up): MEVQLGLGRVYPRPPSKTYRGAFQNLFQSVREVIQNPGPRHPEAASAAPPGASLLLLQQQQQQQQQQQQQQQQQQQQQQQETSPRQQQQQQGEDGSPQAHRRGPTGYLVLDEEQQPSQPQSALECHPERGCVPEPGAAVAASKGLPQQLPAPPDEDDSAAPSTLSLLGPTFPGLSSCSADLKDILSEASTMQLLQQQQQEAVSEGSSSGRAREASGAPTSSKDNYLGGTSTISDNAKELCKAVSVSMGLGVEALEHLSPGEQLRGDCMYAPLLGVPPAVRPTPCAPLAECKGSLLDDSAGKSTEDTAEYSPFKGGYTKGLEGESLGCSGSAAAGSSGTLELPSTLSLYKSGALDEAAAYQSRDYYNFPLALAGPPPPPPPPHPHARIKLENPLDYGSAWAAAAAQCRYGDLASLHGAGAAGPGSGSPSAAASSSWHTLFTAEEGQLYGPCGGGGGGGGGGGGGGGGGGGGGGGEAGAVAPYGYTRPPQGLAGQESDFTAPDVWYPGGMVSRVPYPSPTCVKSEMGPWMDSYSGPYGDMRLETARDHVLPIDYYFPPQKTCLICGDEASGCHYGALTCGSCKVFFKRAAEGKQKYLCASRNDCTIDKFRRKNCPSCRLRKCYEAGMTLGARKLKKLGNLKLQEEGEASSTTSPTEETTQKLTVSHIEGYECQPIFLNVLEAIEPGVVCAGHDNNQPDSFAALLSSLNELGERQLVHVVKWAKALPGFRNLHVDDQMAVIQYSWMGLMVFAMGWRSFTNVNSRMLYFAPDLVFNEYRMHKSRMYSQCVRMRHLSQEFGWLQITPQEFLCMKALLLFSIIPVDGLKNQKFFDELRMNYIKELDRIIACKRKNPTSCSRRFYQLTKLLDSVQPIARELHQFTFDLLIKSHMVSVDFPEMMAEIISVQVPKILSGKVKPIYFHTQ
# Outline: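 Quantitative HTS of the Tox21 10K library used HEK293 AR-UAS-bla cells stimulated with R1881 alongside compound for 16 h at 37C, followed by beta-lactamase FRET detection (LiveBLAzer B/G, 2 h, RT).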
# [18] = molecular target: Androgen receptor (Homo sapiens) (UniProt P10275); assay: qHTS assay to identify small molecule agonists of the androgen receptor (AR) signaling pathway (AID 743036; active = well fitted activation curve with a large enough effect in the signal ratio in the repeat runs, with a control signal flat, not every such curve was filed as active; inconclusive = weak or mixed curves, or effect the other way; inactive = no such curve, though single readings can be large or run the other way; the % refers to the signal ratio; also: potency is read from the fitted curve at half-maximal effect); conditions: HEK293 AR-UAS-bla GripTite, beta-lactamase FRET ratio, 16 h; activation: at 62.4 µM (top of the series) unless noted
# Outline: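 In this Tox21 qHTS, 2,000 HEK293 AR-bla cells per well were incubated with compounds for 16 h at 37C and 5% CO2. Fluorescence intensity was recorded 2 h after adding LiveBLAzer B/G FRET substrate at room temperature.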
# [19] = A CellTox Green Cytotoxicity Assay to monitor cytotoxicity in HepG2 cells - 32 hour (AID 1224883); also: nearly all actives have a fitted effect of over 50% in size
# Outline: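 First, HepG2 cells (600/well) mixed with reagent were plated; second, after 5 h at 37 C they received compounds via pintool; third, fluorescence was measured at 0 h through 40 h at 8 h intervals.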
# Tags tell the direction and shape of the fitted curve or compound fluorescence and quenching.
smiles,measurement,setting,value
CC(C)[N+](=O)[O-],Potency,[1],inactive
same,Potency,[2],inactive
C=CC(=O)N(C)C,Potency,[3],inactive
[P]#[In],Potency,[4],"inconclusive: 1.79 µM [cytotoxic, partial curve]"
same,Potency,[5],inactive
same,Potency,[6],inactive
same,Potency,[3],"inconclusive: 68.6 µM [rising, single point]"
ClCCN1CCCC1,Potency,[7],inactive
same,Potency,[8],inactive
COCc1cnc(C2=NC(C)(C(C)C)C(=O)N2)c(C(=O)O)c1 (configuration not stated),"ratio activity, negative = inhibition",[1],inconclusive: -2.06%
same,Potency,[4],"inconclusive: 25.3 µM [cytotoxic, single point]"
same,Potency,[7],inactive
CC(=O)O.CC(=O)O.CC(=O)O.CC(=O)O.CC(=O)O.CC(=O)O.CC(=O)O.O.O.[Cr].[Cr].[Cr],Potency,[6],inactive
same,Potency,[9],inactive
CC(=O)c1ccc(-c2ccccc2)cc1,Potency,[4],inactive
same,Potency,[10],"inconclusive: 61.6 µM [activator, partial curve, poor fit]"
C=CCOCC1CO1 (configuration not stated),Potency,[11],inactive
C[C@@H]1CN(C2CCC(C#N)(c3ccc(F)cc3)CC2)CC[C@]1(C(=O)O)c1ccccc1 (some centres not stated),Potency,[12],inactive
same,Potency,[13],inactive
same,Potency,[9],"inconclusive: 21.3 µM [inhibitor, partial curve, poor fit]"
OC(Cn1cncn1)(c1ccc(F)cc1)c1ccccc1F (configuration not stated),Potency,[1],inactive
same,Potency,[4],"inconclusive: 1.79 µM [cytotoxic, single point]"
CCN(CC)CCO[C@H]1CC[C@@]2(C)C(=CC[C@@H]3[C@@H]2CC[C@]2(C)C(=O)CC[C@@H]32)C1,Potency,[14],active: 7.94 µM
CCC(C)C(C)(COC(N)=O)COC(N)=O (configuration not stated),Potency,[6],inactive
same,Potency,[2],inactive
same,Potency,[15],inactive
CN1C(=O)CN=C(c2ccccc2)c2cc([N+](=O)[O-])ccc21,Potency,[16],"inconclusive: 29.8 µM [falling, partial curve, poor fit]"
same,Potency,[17],"inconclusive: 21.3 µM [falling, single point]"
same,Potency,[7],inactive
same,Potency,[15],inactive
CC(C)(C)C(=O)C(Cl)Cl,Potency,[1],inactive
same,Potency,[3],inactive
CC(=O)O[C@H]1C[C@H](O[C@H]2[C@@H](O)C[C@H](O[C@H]3[C@@H](O)C[C@H](O[C@H]4CC[C@@]5(C)[C@H](CC[C@@H]6[C@@H]5C[C@@H](O)[C@]5(C)[C@@H](C7=CC(=O)OC7)CC[C@]65O)C4)O[C@@H]3C)O[C@@H]2C)O[C@H](C)[C@H]1O[C@@H]1O[C@H](CO)[C@@H](O)[C@H](O)[C@H]1O,Potency,[17],active: 0.301 µM
same,Potency,[18],"inconclusive: 0.0952 µM [activator, single point]"
same,activation,[14],inconclusive: -44.7% [activator]
C=C(C)[C@H]1CN[C@H](C(=O)O)[C@H]1CC(=O)O,Potency,[16],"inconclusive: 18.8 µM [falling, partial curve, poor fit]"
CN1C2CCC1CC(OC(c1ccccc1)c1ccc(Cl)cc1)C2 (configuration not stated),Potency,[17],active: 21.3 µM
C#CCN(C)[C@H](C)Cc1ccccc1,Potency,[19],inactive
same,Potency,[15],inactive
CC(=O)[O-].CC(=O)[O-].O.O.[Zn+2],Potency,[8],"inconclusive: 0.273 µM [cytotoxic, single point]"
CN(CCO)CCO,Potency,[19],inactive
same,Potency,[9],inactive
Cc1nc(N)nc(N)n1,activation,[18],inconclusive: -1.05% [at 79.1 µM]
same,Potency,[1],inactive
same,Potency,[13],"inconclusive: 112 µM [rising, partial curve, poor fit]"
same,Potency,[9],inactive
C[N+](=O)[O-],Potency,[12],inactive
same,Potency,[13],"inconclusive: 30.6 µM [falling, single point]"
same,Potency,[3],inactive
CC[C@H](N)c1ccccc1,Potency,[2],inactive
same,Potency,[15],"inconclusive: 54.5 µM [activator, partial curve, poor fit]"
C=COCCCl,Potency,[13],"inconclusive: 12.2 µM [falling, full curve, poor fit]"
CC(=O)O[C@H]1C[C@H](O[C@H]2[C@@H](O)C[C@H](O[C@H]3[C@@H](O)C[C@H](OC4CC[C@@]5(C)C(CC[C@@H]6[C@@H]5CC[C@]5(C)[C@@H](C7=CC(=O)OC7)[C@@H](O)C[C@]65O)C4)O[C@@H]3C)O[C@@H]2C)O[C@H](C)[C@H]1O[C@@H]1O[C@H](CO)[C@@H](O)[C@H](O)[C@H]1O (some centres not stated),Potency,[16],active: 0.75 µM
same,Potency,[17],active: 4.25 µM
same,Potency,[18],"inconclusive: 0.239 µM [activator, full curve]"
O=P(O)(O)c1ccccc1,"ratio activity, negative = inhibition",[1],inconclusive: 6.18%
CO[C@H]1[C@@H](O)C[C@H](O[C@H]2[C@@H](O)C[C@H](O[C@H]3[C@@H](O)C[C@H](O[C@H]4CC[C@@]5(C)[C@H](CC[C@@H]6[C@@H]5C[C@@H](O)[C@]5(C)[C@@H](C7=CC(=O)OC7)CC[C@]65O)C4)O[C@@H]3C)O[C@@H]2C)O[C@@H]1C,Potency,[17],active: 0.338 µM
same,Potency,[18],"inconclusive: 0.0952 µM [activator, single point]"
CCCCCCCC(=O)Cl,Potency,[12],inactive
same,Potency,[7],inactive
N#C/C=C/c1ccccc1,Potency,[7],inactive
ClCC(Cl)Cl,Potency,[10],"inconclusive: 0.254 µM [activator, partial curve]"
